Laboratory results: the antibiotic and cytotoxicity screens of Wong et al. (2023)
This is one part of the list.

How the values were obtained:
[1] = system: HSkMC (human skeletal muscle cells); test: cytotoxicity call (relative viability < 0.9); conditions: 10 µM
[2] = system: HepG2; test: cytotoxicity call (relative viability < 0.9); conditions: 10 µM
[3] = system: S. aureus RN4220; test: growth inhibition call (relative growth <= 0.2); conditions: 50 µM

Row | SMILES | cytotoxicity call [1] | cytotoxicity call [2] | growth inhibition call [3]
1 | C[C@H]1CCCCO[C@@H](CN(C)C(=O)Cc2ccccc2)[C@@H](C)CN([C@@H](C)CO)C(=O)c2cc(NC(=O)Cc3ccccc3)ccc2O1 | inactive | inactive | inactive
2 | O=C(N[C@H]1CC[C@H](CCn2cc(C3(O)CCCC3)nn2)O[C@@H]1CO)C1CCOCC1 | inactive | inactive | inactive
3 | COc1ccc(S(=O)(=O)Nc2ccc3c(c2)C(=O)N(C)C[C@@H](OC)[C@H](C)CN(C)[C@H](C)CO3)cc1 | inactive | inactive | inactive
4 | CC(C)COC(=O)OCN1C(=O)CN(CCN2CC(=O)N(COC(=O)OCC(C)C)C(=O)C2)CC1=O | inactive | inactive | inactive
5 | C[C@@H]1CN([C@@H](C)CO)C(=O)c2cccc(NC(=O)C3CC3)c2O[C@@H]1CN(C)S(=O)(=O)c1ccc(Cl)cc1 | inactive | inactive | inactive
6 | NCC[C@@H](Cc1ccccc1)c1ccc2c(c1)OCO2 | inactive | inactive | inactive
7 | Cc1cc(=O)nc2[nH][nH]c(=S)n12 | inactive | inactive | inactive
8 | C[C@@H]1CC[C@@]2(OC1)O[C@H]1C[C@H]3[C@H]4C[C@@H](O)[C@H]5C[C@@H](O[C@@H]6O[C@H](CO)[C@H](O[C@@H]7O[C@H](CO)[C@@H](O)[C@H](O[C@@H]8OC[C@@H](O)[C@H](O)[C@H]8O)[C@H]7O[C@@H]7O[C@H](CO)[C@@H](O[C@@H]8O[C@H](CO)[C@@H](O)[C@H](O)[C@H]8O)[C@H](O)[C@H]7O)[C@H](O)[C@H]6O)CC[C@]5(C)[C@@H]4CC[C@]3(C)[C@H]1[C@@H]2C | active | active | inactive
9 | CCCC#Cc1cnc2c(c1)C(=O)N([C@@H](C)CO)C[C@H](C)[C@@H](CN(C)S(=O)(=O)c1cn(C)cn1)O2 | inactive | inactive | inactive
10 | COC(=O)c1c(CC[C@@H](CO)NC(=O)N[C@@H](Cc2ccccc2)Cn2cc(-c3cncn3C)nn2)oc(C(C)=O)c1C(=O)OC | inactive | inactive | inactive
11 | C[C@@H]1CN([C@H](C)CO)C(=O)c2cccc(NC(=O)CCCCCC(=O)Nc3ccccc3N)c2O[C@@H]1CN(C)S(=O)(=O)c1cn(C)cn1 | inactive | inactive | inactive
12 | CCCNC(=O)N(C)C[C@H]1Oc2cc(C#Cc3cccc(F)c3)ccc2S(=O)(=O)N([C@H](C)CO)C[C@H]1C | inactive | inactive | inactive
13 | C[C@H]1CN([C@@H](C)CO)S(=O)(=O)c2ccc(-c3cccc(C#N)c3)cc2O[C@@H]1CN(C)C(=O)c1ccncc1 | inactive | inactive | inactive
14 | C[C@H](CO)N1C[C@H](C)[C@@H](CN(C)C(=O)CN(C)C)Oc2cc(C#Cc3ccccc3)ccc2S1(=O)=O | inactive | active | inactive
15 | COc1ccc(NC(=O)Nc2ccc3c(c2)C(=O)N([C@@H](C)CO)C[C@H](C)[C@@H](CN(C)Cc2ccncc2)OCCCC[C@@H](C)O3)cc1 | inactive | active | inactive
16 | COc1nsnc1N1CCOCC1 | inactive | inactive | inactive
17 | COc1c(C)cc(-c2cc3c(c(-c4ccccc4)n2)[Si](C(C)C)(C(C)C)O[C@H]3c2ccccc2)cc1C | inactive | inactive | inactive
18 | C[C@@H]1CCCCO[C@H](CN(C)S(=O)(=O)c2cccs2)[C@@H](C)CN([C@@H](C)CO)C(=O)c2cc(NC(=O)c3ccccc3)ccc2O1 | inactive | inactive | inactive
19 | CC(C)NC(=O)Nc1ccc2c(c1)C(=O)N([C@@H](C)CO)C[C@@H](C)[C@H](CN(C)S(=O)(=O)c1cn(C)cn1)OCCCC[C@H](C)O2 | inactive | inactive | inactive
20 | O=c1ccc(-n2cccn2)n[nH]1 | inactive | inactive | inactive
21 | C[C@@H]1CN([C@@H](C)CO)C(=O)c2cc(NC(=O)Nc3ccccc3)ccc2O[C@@H](C)CCCCO[C@@H]1CN(C)C(=O)CCC(F)(F)F | inactive | inactive | inactive
22 | COCC#Cc1ccc([C@H]2[C@H](CO)N3C(=O)CN(C(=O)CN4CCOCC4)C[C@@H]23)cc1 | inactive | inactive | inactive

Row | SMILES | cytotoxicity call [1] | cytotoxicity call [2] | growth inhibition call [3]
23 | C[C@@H]1CN([C@@H](C)CO)C(=O)c2cc(NS(C)(=O)=O)ccc2O[C@H]1CN(C)S(=O)(=O)c1cccs1 | inactive | inactive | inactive
24 | O=C(C[C@H]1CC[C@@H](NC(=O)Cc2ccccn2)[C@@H](CO)O1)NCCCN1CCOCC1 | inactive | inactive | inactive
25 | O=C(C[C@@H]1CC[C@@H](NC(=O)c2ccc(F)cc2)[C@@H](CO)O1)NCc1ccncn1 | inactive | inactive | inactive
26 | C[C@@H]1CCCCO[C@@H](CN(C)C(=O)C2CCCCC2)[C@H](C)CN([C@@H](C)CO)C(=O)c2cc(NC(=O)CCCCCC(=O)Nc3ccccc3N)ccc2O1 | inactive | inactive | inactive
27 | C[C@H]1CN([C@@H](C)CO)S(=O)(=O)c2ccc(C#CC3(O)CCCC3)cc2O[C@H]1CN(C)C(=O)c1ccncc1 | inactive | inactive | inactive
28 | O=C(NCC(=O)N1CC[C@H](N[C@H]2CC[C@@](O)(c3ccc(-c4ncccn4)cn3)CC2)C1)c1cccc(C(F)(F)F)c1 | inactive | inactive | inactive
29 | Cc1noc(C)c1NC(=O)N(C)C[C@H]1OCCCC[C@H](C)Oc2ccc(NC(=O)c3ccccc3)cc2C(=O)N([C@H](C)CO)C[C@@H]1C | inactive | inactive | inactive
30 | CC(C)[C@H](NC=O)C(=O)OC[C@H](O)[C@H](O)[C@H](O)[C@H](O)COC(=O)[C@H](NC=O)C(C)C | inactive | inactive | inactive
31 | CNc1cc(=O)n(C)c(=O)n1C | inactive | inactive | inactive
32 | O=C(O)c1ccc(Nc2cn[nH]c(=O)n2)cc1O | inactive | inactive | inactive
33 | C[C@@H]1CCCCO[C@H](CN(C)S(=O)(=O)c2ccc(Cl)cc2)[C@@H](C)CN([C@@H](C)CO)C(=O)c2cc(NC(=O)Nc3ccc(F)cc3)ccc2O1 | inactive | inactive | inactive
34 | CC(C)c1nc(CN(C)C(=O)NC(C(=O)NC(Cc2ccccc2)CC(O)C(Cc2ccccc2)NC(=O)OCc2cncs2)C(C)C)cs1 (centres undefined) | inactive | inactive | inactive
35 | C[C@@H]1CN([C@@H](C)CO)C(=O)c2cc(NC(=O)CCC(F)(F)F)ccc2O[C@@H](C)CCCCO[C@H]1CN(C)C(=O)Cc1ccccc1 | inactive | inactive | inactive
36 | Cc1noc(C)c1NC(=O)Nc1ccc2c(c1)CC(=O)N([C@H](C)CO)C[C@H](C)[C@H](CN(C)Cc1ccc(C(F)(F)F)cc1)O2 | inactive | inactive | inactive
37 | CCS(=O)(=O)N1CCN(C[C@@H](C)O)CC1 | inactive | inactive | inactive
38 | COc1ccc(NC(=O)N(C)C[C@H]2OCc3ccccc3-c3c(n(C)c4ccccc34)C(=O)N([C@H](C)CO)C[C@@H]2C)cc1 | inactive | inactive | inactive
39 | CCn1c2c(c3cc(C4CCCCC4)ccc31)CCC/C2=N\O | inactive | inactive | inactive
40 | CC1(C)OC(=O)C2(C(=O)O1)[C@@H](c1ccc(-c3cccc(Br)c3)cc1)CC(=O)C[C@H]2c1ccccc1 | inactive | inactive | inactive
41 | C[C@@H]1CN([C@@H](C)CO)C(=O)Cc2cc(NS(=O)(=O)c3cn(C)cn3)ccc2O[C@H]1CN(C)CC1CCCCC1 | inactive | inactive | inactive
42 | O=C(O)CNS(=O)(=O)c1ccccc1 | inactive | inactive | inactive
43 | COc1c(-c2ccccc2)oc2c(ccc3ccoc32)c1=O | inactive | inactive | inactive
